According to the supplement of paper PMC11417369:
The other results are listed elsewhere or left out.

tested on: PfHDP1 homeodomain (GST-tagged); assay: gcPBM binding intensity (ln(normalized median fluorescence intensity)); higher = stronger DNA binding
Method in brief: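 DNA-binding domains from P. falciparum, fused to GST and produced in E. coli, were put on an Agilent 4 × 180k double-stranded probe array for 1 h in 1× PBS holding 1% milk, 0.2 mg/ml BSA, 0.5% salmon testes DNA and 0.03% Triton X-100. Probes were primer-extended, 36 bp long and drawn from intergenic genomic regions, with negative controls included. After Alexa488 anti-GST antibody detection and a 488 nm scan, binding intensity was set as the highest Masliner-normalised natural-log median intensity across replicate spots of either probe orientation.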

Going from “AACATTTTTAGATTATATTATTAAATAAGTAACTGC [XGTACX_negctrl_site326]” to “TATGTATTTATATATACACACTTCTGTGATACGAAA [CACACA_site5128]”, the “gcPBM binding intensity (ln)” value rises from 6.36 to 6.68.

Compared with “AAGTTTTTTATTTTTTGTACATAAAAAATAATAATT [XGTACX_site1755]”, “TTTATATTTATCCAAAGTACTTTTTAAAAACATACC [XGTACX_site4518]” is higher in “gcPBM binding intensity (ln)” value: 6.23 for the first, 6.47 for the second.

First: ATGAACATTTATAAATGTACTCACATATATATATTT [XGTACX_site6692]
Second: ATTAAAAATAAGAAGAGTACATATAATATATATACA [XGTACX_site3092]
The “gcPBM binding intensity (ln)” value of the first is higher: 6.51 for the first, 6.12 for the second.

Going from “ACCTTTTGGATTATATGTACATATATATATATATAT [XGTACX_site2687]” to “TTAAAAAGAAAGTTCACACACATATATATGACGGAA [CACACA_site2602]”, the “gcPBM binding intensity (ln)” value falls from 9.17 to 6.78.

Going from “AAAATAATATTTAATACACACATAATTATAATATAA [CACACA_site782]” to “ATTTTTAATTGAATCACACATTTCCTTTCTTTTGTG [CACACA_site4438]”, the “gcPBM binding intensity (ln)” value falls from 6.64 to 6.55.

Going from “ATATTATTTTAAAGTACACACATATATTGATATATA [CACACA_site7153]” to “TTTTTCATTTAACAGAAGGGAGATAAAAAAAAAAAA [TGCATGCA_negctrl_site261]”, the “gcPBM binding intensity (ln)” value falls from 6.72 to 6.49.

Compared with “GTATGTATGTATGTATGTACGTATGTATGTATATAT [XGTACX_site3369]”, “AATAATTATAAAAAATGTACAAAAAAAAAAAAAAAA [XGTACX_site3681]” is lower in “gcPBM binding intensity (ln)” value: 7.57 for the first, 6.33 for the second.

“AGAATACATCTATGAACACACAGAGTTTTAAAAAAT [CACACA_site5514]” and “ATACTAAATATAAATTGTACTTTATTTATATTGAGA [XGTACX_site8699]” are the same in “gcPBM binding intensity (ln)” value: 6.18 for the first, 6.18 for the second.

First: GCAAATCATGCTATGGTGCATATGTAAGATGAGCAT
Second: TTGTGATTATTATATTGTACAATAAGTATTAAAGAA [XGTACX_site2753]
The “gcPBM binding intensity (ln)” value of the first is higher: 10.4 for the first, 7.23 for the second.

Compared with ATATATAATACTACAGTGCAATATATTATATTTGTT, “TTCCTCTTAAAATATACACACTGATTTAAGAAAAAA [CACACA_site5770]” is lower in “gcPBM binding intensity (ln)” value: 8.63 for the first, 6.42 for the second.

First: AAATAAAAGTTCACCTGTACACACATATATATATGT [XGTACX_site3513]
Second: CATAAAATATAAAACACACACACATATATTTATATA [CACACA_site6247]
The “gcPBM binding intensity (ln)” value of the first is lower: 6.68 for the first, 7.04 for the second.

Going from “TTTTTTTTTTTTTAGAGTACACACTTTTTTACATTT [XGTACX_site8159]” to “TATATATATATATATATACACACTATATAATTCAAA [CACACA_site1023]”, the “gcPBM binding intensity (ln)” value rises from 6.44 to 9.47.

Going from “TTAACATAGATATATACACACCAATGATGGCATTTA [CACACA_site6840]” to “ATTATTTTGTTTATTACATGCAGGTGTATATTACAG [TGCATGCA_site723]”, the “gcPBM binding intensity (ln)” value rises from 6.33 to 6.77.

Going from “GAGTATATTTATATTGCACACAATTTTTTTATTTTT [CACACA_site2644]” to “TTAAATACTAAAAAGTGTACACATACATAAAAAATT [XGTACX_site6261]”, the “gcPBM binding intensity (ln)” value falls from 10.5 to 7.13.

First: ATTATGTTAATAATATGTACATATATCTACATATAT [XGTACX_site7978]
Second: TGCATAAATTTATGCACACATAAAAAAAAAAAAAAA [CACACA_site2923]
The “gcPBM binding intensity (ln)” value of the first is lower: 6.45 for the first, 10.4 for the second.

Compared with “CAACTCTTATTTAATTATATGAATTAATTTATATGA [CACACA_negctrl_site200]”, “CATAAATGTCTCACATGTACATATGCATTTTTAAAA [XGTACX_site3194]” is higher in “gcPBM binding intensity (ln)” value: 5.88 for the first, 6.69 for the second.

First: TATATATAATATTGCACACAAAATTAAAAGTAAATA [CACACA_site19]
Second: TGAACTTTAAACCCTGAACACACACTAATACACCCA [CACACA_site7970]
The “gcPBM binding intensity (ln)” value of the first is higher: 10.3 for the first, 7.15 for the second.

First: AATATGTCATATATGTGTACATATGCACAGATATTA [XGTACX_site951]
Second: ATAAAAAGAAATCCAATACACACCTTCAAAATGGGT [CACACA_site1622]
The “gcPBM binding intensity (ln)” value of the first is higher: 9.04 for the first, 6.72 for the second.

Compared with “TCATTCAGTTTTATCACACACAATCAAACATATATA [CACACA_site2742]”, “AAACATTTATCAATGAATCTTTTAATAAGTGTAAAG [XGTACX_negctrl_site80]” is lower in “gcPBM binding intensity (ln)” value: 6.75 for the first, 6.32 for the second.

Compared with “ATTCAATATTTATACACACACACTTTTAATAATTAA [CACACA_site7725]”, “ATATATATAATAAATACACACATTTATATAGATAAA [CACACA_site3254]” is lower in “gcPBM binding intensity (ln)” value: 7.16 for the first, 6.67 for the second.

Going from “TCAACATTCATTGGAAGTACTCACTCCCATATAATA [XGTACX_site5211]” to “TATTTTTTTAGATATACATGCAAAAACAGAAGAAAT [TGCATGCA_site283]”, the “gcPBM binding intensity (ln)” value rises from 6.04 to 6.73.

First: AATATAAGGATATATACACACATAAATACATACATA [CACACA_site7859]
Second: AAAATATTATCTAATTGTACTTATATAACTATATAT [XGTACX_site5699]
The “gcPBM binding intensity (ln)” value of the first is higher: 6.62 for the first, 6.08 for the second.

Compared with “TTGAAATGCATGAACACACACAGCTATAAATGCATA [CACACA_site968]”, “ATACTAAGGAGAAAAGAAAAGTGAATTTATTCTATA [CACACA_negctrl_site1792]” is lower in “gcPBM binding intensity (ln)” value: 6.48 for the first, 5.89 for the second.

Compared with “AAATTTATGAACCTAGTGCAGAAATTAAAAAGATGA [GTGCAC_site9396]”, “TAATAAATAAATGACACACACACACCCAAAAAAAAA [CACACA_site2623]” is lower in “gcPBM binding intensity (ln)” value: 7.56 for the first, 6.77 for the second.

First: AGCTATGTATTCTACACACACATACACCCATATATA [CACACA_site5827]
Second: TTATTAACCTAAATTAGTACATATAATATAAAAAAT [XGTACX_site8661]
The “gcPBM binding intensity (ln)” value of the first is higher: 6.97 for the first, 6.59 for the second.

Compared with “TATATATAAACAAAATGTACATATTTGAGATACCCT [XGTACX_site2195]”, “AAACCGTGGGAGCACACACACACACGCGCACATATA [CACACA_site6288]” is higher in “gcPBM binding intensity (ln)” value: 7.12 for the first, 7.5 for the second.

Compared with “TGTTTCTAAAAAAAAGGTACACATATATATAATATA [XGTACX_site3217]”, “GTAACCCACCAAAATGCACACATTAAAAAAAAAAAA [CACACA_site1046]” is higher in “gcPBM binding intensity (ln)” value: 6.33 for the first, 9.93 for the second.

Compared with “AATACCGGAAAGCAAACACACATTTGAAAACCATAA [CACACA_site7761]”, “TATATATTATATATATGTACATATTTATTTTATTTT [XGTACX_site6989]” is lower in “gcPBM binding intensity (ln)” value: 6.58 for the first, 6.57 for the second.

Going from “AAAAAATTTCAAATGACATAATGTAATTTCCCTTTT [GTGCAC_negctrl_site673]” to “TTTATCAAAATAAATGCACACAAATTGCACATATCT [CACACA_site8281]”, the “gcPBM binding intensity (ln)” value rises from 5.96 to 10.9.

Compared with “ATAGTTTATACAAATAGTACGCACAAAAAAAAATAA [XGTACX_site6727]”, “CAATACTATTATTATAGTACGTATAAAATTATATAT [XGTACX_site4950]” is lower in “gcPBM binding intensity (ln)” value: 7.03 for the first, 6.44 for the second.

Going from “TACAAAAAAGAAGATATTCAAACAAAAACAAAAAAA [CACACA_negctrl_site1126]” to “AGTAAACGATGATGTTGTACAAAAAGGATAATTTAA [XGTACX_site6698]”, the “gcPBM binding intensity (ln)” value rises from 6.56 to 6.84.

Going from “TTTTTATTTTTTATGTAATTTAAATAATTATTCAAA [CACACA_negctrl_site1549]” to “GTATTCTTCTCTCCGTGTACATATATATGTATATAT [XGTACX_site803]”, the “gcPBM binding intensity (ln)” value rises from 6.05 to 7.66.

Compared with “TATATATATATGCTACGTACATATATATTATATATA [XGTACX_site7894]”, “TATCATAATAGACACAGTACATATATGTCTTAAATT [XGTACX_site8775]” is lower in “gcPBM binding intensity (ln)” value: 9.01 for the first, 6.32 for the second.

Going from “ACACATACATACATATGTACATATATACATATATAC [XGTACX_site5559]” to “ATAATGTTTTATAATACACACATTATATATATAAAT [CACACA_site6101]”, the “gcPBM binding intensity (ln)” value rises from 6.8 to 6.91.

Compared with “GATTACAAAAAAAATACACACAAAAAAAAAAAGGAA [CACACA_site2096]”, “ATATTTATGTAAAAAAGTACATACAATTATATATGT [XGTACX_site3750]” is lower in “gcPBM binding intensity (ln)” value: 6.51 for the first, 6.26 for the second.

First: AATATCTTAGTGGATACACACATATAAATGTGTATT [CACACA_site6367]
Second: TTGAGCATAAAATTTGGAAACCTCAATCGGACAAAA [GTGCAC_negctrl_site84]
The “gcPBM binding intensity (ln)” value of the first is lower: 6.26 for the first, 7.91 for the second.

Compared with “CTTTCAATTTTTTTCTGTACCAATAAAAAATATAAA [XGTACX_site2120]”, “GATATGAATATAGGTTGTACTATATATAAAGTATGT [XGTACX_site1877]” is higher in “gcPBM binding intensity (ln)” value: 6.4 for the first, 6.6 for the second.

Going from “AACGGGGGTAGTTTTATGCACACGTTTATTAATGCT [CACACA_site3173]” to “TATATGTTAATTTTTTTTTTTTTTTTTTTTTTTATA [CACACA_negctrl_site62]”, the “gcPBM binding intensity (ln)” value falls from 9.56 to 5.66.

Compared with “AAAGTACAAGTATAATCACACGTGTCTATTATATAC [CACACA_site4507]”, “ACATGAATTTATATGTGTACTAACTATATTCTTAAA [XGTACX_site5966]” is lower in “gcPBM binding intensity (ln)” value: 6.72 for the first, 6.02 for the second.

Going from “TATATACAATATAGGTGTACATTTTTTTATCTATTT [XGTACX_site8431]” to “TCTGGCATATAATATTGTACACATATATATATATAT [XGTACX_site8182]”, the “gcPBM binding intensity (ln)” value rises from 6.56 to 9.21.

Going from “TATCTGTATTTATTCACACATATAAAATATAATTAA [CACACA_site5560]” to “ATGAATAAATAGGTCACACACAAATATTTATAAATA [CACACA_site7186]”, the “gcPBM binding intensity (ln)” value rises from 6.36 to 6.99.

First: TCTTATATATGCTTAAATATATTATATTTATTTGAA [CACACA_negctrl_site1757]
Second: TTATTTATGATATATACACACTAACATTATTTATCC [CACACA_site6720]
The “gcPBM binding intensity (ln)” value of the first is lower: 6.54 for the first, 6.56 for the second.

Going from “ATCATATGTATGCATACACACAAAAAATTATATATA [CACACA_site398]” to “TATAATGATATAACAACACACATGTATGTATTATTA [CACACA_site230]”, the “gcPBM binding intensity (ln)” value falls from 6.86 to 6.23.

Compared with “ATAATATATTTATGTTGTACAAGGAAAATTTTGAAA [XGTACX_site3472]”, “GAAATGGAAAAATATACATGCGCATATAAATTAATA [TGCATGCA_site834]” is lower in “gcPBM binding intensity (ln)” value: 7.63 for the first, 7.08 for the second.

“TTTTTGATGAAATATTATTTTCCTGACTTGGATTAA [CACACA_negctrl_site148]” was tested, and the “gcPBM binding intensity (ln)” value was 6.27.
